Where “and” joins values, the source holds several entries; their conditions need not be identical. Identical values can stand only once. About 1,200 (2.5%) of roughly 48,000 compounds were called active. Another 2% or so got no clear call; they are omitted.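 The calls were made as follows: active = activation of at least 60% and not above a set upper limit (about 1 call in 100 departs from these limits); inconclusive = activation of 40% to 60%, or above that upper limit; inactive = activation under 40%.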 The list shows a part of the results.
Target: Probable G-protein coupled receptor 32 (Homo sapiens) (UniProt O75388)
Assay: qHTS for Agonists of Human Resolvin D1 Receptor DRV1; also: 0% is about no effect
Details: CHO-K1 GPR32 beta-arrestin PathHunter luminescence, 90 min; at 76.9 µM; stronger effect = higher value; zero percent set by DMSO-only wells
Summary of the method: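 Agonism was scored by beta-Gal fragment complementation (chemiluminescent read, 1 h detection at ambient temperature) reporting beta-arrestin binding to GPR32 in engineered CHO-K1 cells. Compound treatment lasted 90 min at 37 C, normalized to a DMSO basal control.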

Sequence of UniProt O75388 (O75388 whole entry, looked up): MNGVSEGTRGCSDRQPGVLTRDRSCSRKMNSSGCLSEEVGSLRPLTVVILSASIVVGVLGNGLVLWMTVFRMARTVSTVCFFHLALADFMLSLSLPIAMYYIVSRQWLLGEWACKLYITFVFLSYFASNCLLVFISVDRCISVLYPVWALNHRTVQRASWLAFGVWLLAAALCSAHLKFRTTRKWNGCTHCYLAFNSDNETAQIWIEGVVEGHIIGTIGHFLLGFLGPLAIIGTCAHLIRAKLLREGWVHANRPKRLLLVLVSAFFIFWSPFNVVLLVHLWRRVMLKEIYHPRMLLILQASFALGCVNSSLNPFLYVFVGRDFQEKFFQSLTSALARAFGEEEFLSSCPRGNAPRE

activation, inactive:
Cc1ccc(-c2nc3scc(CCNS(=O)(=O)c4ccc(F)c(C)c4)n3n2)cc1 20.1%
CCc1ccc(OCCCn2c(-c3ccc(Cl)cc3)nc3ccccc3c2=O)cc1 -11.9%
CCC1CN(C(=O)N2CCC(C(=O)NCCc3ccccc3C)CC2)c2ccccc2O1 (centres undefined) -15.2%
Cc1ccc(OCC(=O)OCc2cc(=O)n3nc(C4CCCCC4)sc3n2)cc1C -10.3%
O=C(c1[nH]c2ccccc2c1Sc1ccc(Cl)cc1)N1CCCCC1 -29.2%
O=C1CC(c2ccccc2)Sc2nc(-c3ccc(F)cc3)nn21 (centres undefined) -8.23%
CCN(CC)c1ccc(NC(=O)c2cc(C)nc3c2c(C)nn3-c2cccc(F)c2)c(C)c1 -23.7%
Cc1ccc(Cl)cc1NC(=O)CSc1ccc(C(=O)O)cn1 -3.58%
c1ccc(-c2nnc(CN3CCN(c4ccccn4)CC3)o2)cc1 17.1%
O=C(NCCSCc1cccc(Cl)c1)C1CCN(S(=O)(=O)Cc2ccccc2)CC1 9.6%
CCN(Cc1ccccc1)Cc1c(O)ccc2c(=O)c(-c3ccccc3)c(C(F)(F)F)oc12 -22.1%
CCOc1ccccc1CNCc1c(C(=O)O)c(C)n(Cc2ccc(Cl)cc2)c1C -6.47%
COc1ccc(C(=O)Nc2cc(C(C)C)c(O)c(S(=O)(=O)c3ccc(Cl)cc3)c2C)cc1 -38.9%
O=C(Nc1nnc(S(=O)(=O)N2CCOCC2)s1)c1ccccc1Cl 19.1%
Cc1cc2nn(-c3ccc(F)cc3)nc2cc1NC(=O)c1cccc2ccccc12 -6.5%
CCCC(=O)n1nc(-c2ccco2)nc1NCc1ccccc1Cl 2.44%
CC(C)CCNC(=O)c1ccc2c(c1)N(Cc1cccc(Cl)c1)C(=O)c1ccccc1S2 -17.2%
Nc1nc(N)c2nc(-c3ccccc3)c(N)nc2n1 43.9% and 8.95%
COc1ccc(OC)c(CCNC(=O)c2cc3c(=O)oc4ccc(C)cc4c3s2)c1 4.38%
CC(=O)Nc1ccc(NC(=O)C2CCCN2S(=O)(=O)c2ccc3c(c2)CCCC(=O)N3)cc1 (centres undefined) -12%
COc1ccc(N2CCN(C(=O)CN3C(=O)CSc4c3c(C)nn4-c3ccccc3)CC2)cc1 5.73%
O=C(Nc1ccc2oc(-c3cccnc3)nc2c1)c1ccc(-c2ccc(OC(F)(F)F)cc2)o1 29.6%
Cc1ccc(OCC(=O)Nc2ccc3c(c2)nc(CCNC(=O)c2ccco2)n3C)cc1 1.94%
O=C(Nc1ccc(F)c(Cl)c1)c1cc(S(=O)(=O)N2CCc3ccccc3C2)ccc1F -16.3%
O=C(Nc1ccc2nc(SCc3ccccc3)sc2c1)c1ccccc1F 26.6%
Cc1ccccc1N1CC(C(=O)Nc2ccc(Br)cc2)CC1=O (centres undefined) 9.33%
COCCCNc1nc2cc(OC)c(OC)cc2c2nc(-c3ccccc3)nn12 -9.21%
COc1ccc(CNC(=O)CN2N=C(c3ccccc3)CCC2=O)c(OC)c1 -13.7%
CCn1c(=O)c(=O)n(CC)c2cc(N3CCCCC3)c(NC(=O)c3ccc(Cl)cc3)cc21 -35.1%
Cc1nnc(N2CCCC(C(=O)NCc3ccccc3F)C2)c2nn(-c3ccc(Cl)cc3)c(C)c12 (centres undefined) -9%
O=C(CSc1n[nH]c(-c2ccccc2)n1)NCCCc1ccccc1 -3.18%
Cc1ccc(-n2nnc(-c3nsc(NC(=O)c4cccc(Cl)c4)n3)c2C)cc1C 11.1%
COc1cc(Cl)c(C)cc1NC(=O)c1ccc2c(SCC(=O)O)c3c(nc2c1)CCCC3 -17.6%
COc1ccc(C(=O)NCc2nnc(SCC(=O)Nc3ccccc3)n2-c2ccccc2)cc1 -6.65%
CCOC(=O)c1cc(S(=O)(=O)N2CCN(c3cc(C)ccc3C)CC2)[nH]n1 -3.73%
Cc1cccc(C)c1N1CC(c2nc3ccccc3n2CC(=O)OC(C)C)CC1=O (centres undefined) -8.48%
COc1ccccc1Nc1nn2c(=O)c3ccc(C(=O)N4CCCCC4)cc3nc2s1 6.68%
COc1ccc(CCn2nnnc2C2(c3ccc(C)cc3)CC2)cc1 -12.4%
COc1ccc(NC(=O)CSc2nc3cc(OC)c(OC)cc3c3nc(-c4ccccc4)nn23)cc1Cl 2.74%
COc1ccc(CC(=O)NCc2nc3cccnc3n2Cc2ccc(C)cc2)cc1 -6.93%
CCCN(CCC)C(=O)CSc1nc2ccccc2c(=O)n1Cc1ccco1 -25.5%
COC(=O)c1ccc(NC(=O)C(=O)NCCc2sc(-c3cccc(F)c3)nc2C)cc1 -13.5%
COc1cc(-c2ccno2)ccc1S(=O)(=O)N1CCN(c2ccccc2F)CC1 -9.67%
CC1CCN(S(=O)(=O)c2cc3c4c(c2)CC(=O)N4CCC3)CC1 -28.1%
Cc1ccc(-c2c(C)n3c4c(=O)n(C)c(=O)n(C)c4nc3n2-c2cccc(O)c2)cc1 -3.91%
Fc1ccc(-c2cc(-c3ccccc3)c3c(n2)-c2cc(F)ccc2OC3)cc1 -2.33%
Cc1cc(C)cc(NC(=O)CSc2oc(-c3cccs3)nc2S(=O)(=O)c2ccccc2)c1 -13.1%
COc1ccc(S(=O)(=O)NCC(c2ccco2)N2CCOCC2)cc1 (centres undefined) -13.7%
Cc1cccc(-c2cc(NC(=O)C(C)(C)C)n(-c3ccccc3)n2)c1 -8.42%
COc1ccc(C(CC(=O)Nc2cccc(C)c2C)N2Cc3ccccc3C2=O)cc1 (centres undefined) -21.6%
COc1cc(C2c3c(oc4ccccc4c3=O)C(=O)N2c2nncs2)cc(OC)c1OC (centres undefined) -10.1%
CCC1CN(C(=O)N2CCC(C(=O)Nc3cc(C)ccc3C)CC2)c2ccccc2O1 (centres undefined) -24.2%
CCCCOc1ccc(C(=O)CCN2CCCCC2)cc1 42.6%
CCOc1ccc(-c2cn3c(n2)sc2cc(C(=O)NCCCc4ccccc4)ccc23)cc1 -7.1%
Cc1nc2nc(SCc3ccc(F)cc3Cl)nn2c(C)c1Cc1ccccc1 -22.8%
O=C(COc1ccc(F)cc1)Nc1ccccc1C(=O)OCc1cc(=O)n2nc(C3CC3)sc2n1 0.311%
CC(NC(=O)c1ccc(Nc2nc3ccccc3n3nnnc23)cc1)c1ccccc1 (centres undefined) -6.62%
O=C(CS(=O)(=O)c1cccc2nsnc12)NCc1ccc(Cl)cc1 -10.2%
COc1ccc(-c2c(C)nn3c4c(cnc23)C(=O)CC(c2ccccc2)C4)cc1 (centres undefined) -1.29%
COc1cccc(N2CC(NC(=O)c3ccc4c(c3)OCO4)CC2=O)c1 (centres undefined) -5.5%
Cc1nc2nc(-c3ccc(Cl)cc3Cl)nn2c(C)c1CCC(=O)Nc1ccc(F)cc1 0.21%
CCCCN(C)CCCNC(=O)CN1C(=O)COc2ccc(S(=O)(=O)N3CCOCC3)cc21 -11.4%
CC(=O)c1ccc(NC(=O)C2CCCN(S(=O)(=O)c3ccc4c(c3)CCCN4C(C)=O)C2)cc1 (centres undefined) 8.18%
COc1ccccc1N1CCN(S(=O)(=O)c2c(C)sc3ncn(CC(=O)Nc4ccc(C(F)(F)F)cc4)c(=O)c23)CC1 -1.76%
Cc1cc(C)c(NC(=O)CCCN2C(=O)COc3ccc(C)cc32)c(C)c1 -7.91%
COc1ccc(CCNC(=O)CN(c2cc(C(F)(F)F)ccc2Cl)S(C)(=O)=O)cc1 31.4%
Cc1ccc(OCC(=O)Nc2ccccc2C(=O)OCc2cc(=O)n3ccsc3n2)cc1C -0.576%
O=C(O)Cc1sc(Nc2ccccc2Cl)nc1-c1ccccc1 -8.03%
CCOC(=O)c1c(NC(=O)Cc2coc3cc(C)ccc23)sc2c1CCCC2 -27.6%
CCc1ccc(NC(=O)c2cc3nc(-c4ccc(C)cc4)cc(C(F)(F)F)n3n2)cc1 3.52%
COC(=O)c1sc(NC(=O)c2cc3nc(-c4ccc(Br)cc4)cc(C(F)(F)F)n3n2)c(C(=O)OC)c1C -20.5%
O=C(Cn1ccc2cc(S(=O)(=O)N3CCCCC3)ccc21)NCCc1ccc(Cl)cc1 -12.8%
Cc1cc(C)cc(OCC(=O)NCC2(N(C)C)CCCCC2)c1 -5.05%
Cc1ccc(C)c(N2CCN(c3cc(C)nc4c(-c5ccc(Cl)cc5)c(C)nn34)CC2)c1 -5.43%
CC(C)CCNC(=O)[C@@H](c1ccccc1)N1Cc2ccccc2C1=O -8.01%
CCOc1ccc(NC(=O)Cn2nnc(C(=O)Nc3ccc(OCC)cc3)c2N)cc1 23.1%
CCc1nn(CC(=O)NC(C)c2ccccc2)c(=O)c2cc3sccc3n12 (centres undefined) -14.1%
CCOC(=O)C1=C(CS(=O)(=O)c2ccc(F)cc2)NC(=O)NC1c1ccc(OCC)c(OC)c1 (centres undefined) -1.44%
Cc1ccc(S(=O)(=O)N2CCC(c3ccncc3)CC2)c(C)c1 8.54%
CCCc1cc(=O)n2[nH]c(NCc3ccccc3OC)nc2n1 10.7%
O=C(COc1ccccc1-c1nc(-c2ccccc2)no1)Nc1ccccc1[N+](=O)[O-] 2.76%
CC(=O)Nc1ccc(C2Nc3c(C)cc(C)cc3-c3cc(C)nn32)cc1 (centres undefined) -1.91%
Cc1ccc(S(=O)(=O)NCCSc2nnnn2-c2ccc(Cl)c(C(=O)O)c2)cc1 -5.03%
COc1cc(OC)c(NS(=O)(=O)c2ccc3c(c2)NC(=O)CCS3)cc1Cl 43.2%

Source: PubChem BioAssay AID1346428 (National Center for Advancing Translational Sciences (NCATS), 2018)
